# The campaign covered roughly 360,000 compounds. About 2,600 (0.72%) were called active. Inconclusive means that the source gave no clear call. Such entries were picked first, then a sample of the others. Calls follow the shape of the dose curve; as a rule, active = well fitted inhibition curve with a large enough effect; inconclusive = small, poorly fitted or top-dose-only effect; inactive = no such curve, though single readings can be large or run the other way. Potencies of inconclusive entries are doubtful fits and often do not repeat.
# Test: Primary qHTS for Inhibitors of ATXN expression; also: nearly all actives have a fitted effect of over 55% in size
# Settings: HEK-293 ATXN2-luciferase reporter, luminescence, 24 h; series mostly up to 57 µM
# Summary of the method: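 qHTS (up to 57 uM final) was run with 24 h compound exposure of reporter cells at 37 °C. Each well was multiplexed: SteadyGlo luminescence measured ATXN2-luciferase expression after a fluorogenic Gly-Phe-AFC viability readout (25 uM final).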
# Potency is read from the fitted curve at half-maximal effect; tags tell the direction and shape of the fitted curve.
row,Structure (SMILES),Potency
1,COc1ccccc1N1CCN(C(=O)c2onc(C)c2Cl)CC1,"inconclusive: 0.126 µM [inhibitor, full curve, poor fit]"
2,Cc1ccc(-n2cc(CN(C)CCc3cn[nH]c3)c(-c3cccc(C)c3)n2)cc1,"inconclusive: 1.06 µM [inhibitor, full curve, poor fit]"
3,Cc1cc(=O)[nH]c(N=N/C(=N/Nc2ccc(O)cc2)c2ccccc2)n1,"inconclusive: 10 µM [inhibitor, partial curve]"
4,CN(C[C@@H]1COCCO1)S(=O)(=O)Nc1ccc2ccc3ncc(-c4cnn(C)c4)cc3c(=O)c2c1,"inconclusive: 48.5 µM [inhibitor, partial curve, poor fit]"
5,Cc1cccc(NC(=O)/C(C#N)=C/c2cn(CC(=O)NCc3ccco3)c3ccccc23)c1C,"inconclusive: 39.8 µM [inhibitor, partial curve, poor fit]"
6,CCc1ccn2cc(-c3ccc4c(c3)OCO4)nc2c1,active: 3.55 µM
7,O=C1C(Oc2ccccc2)C(c2ccc3c(c2)OCO3)N1CCc1ccc(F)cc1 (configuration not stated),inactive
8,CCOC(=O)c1sc(N(Cc2ccccc2)C(=O)COC(=O)c2ccc(O)cc2)nc1C,"inconclusive: 11.2 µM [inhibitor, partial curve, poor fit]"
9,COc1cc(OC)c(NC(=S)Nc2cc(Cl)cc(Cl)c2)cc1Cl,"inconclusive: 29.9 µM [inhibitor, partial curve, poor fit]"
10,COc1ccc(Cn2c(C(=O)O)c(CNCCc3ccccc3Cl)c3ccc(C)cc32)cc1,"inconclusive: 39.8 µM [inhibitor, single point]"
11,CN(C)CCCNc1nc(-c2ccccc2)nc2ccccc12,"inconclusive: 39.8 µM [inhibitor, partial curve, poor fit]"
12,Cc1ccc(NC(=O)Cn2c([N+](=O)[O-])cnc2C)cc1Cl,inactive
13,CC1CCCN(c2sc(S(C)(=O)=O)nc2S(=O)(=O)c2ccc(Cl)cc2)C1 (configuration not stated),inactive
14,CCCc1nn(C)c2c(=O)[nH]c(-c3cc(S(=O)(=O)N4CCN(C)CC4)ccc3OCC)nc12,"inconclusive: 19.3 µM [inhibitor, partial curve, poor fit]"
15,CCC(=O)Nc1ccc(C(=O)OCc2ccccc2)cc1,inactive
16,COc1ccc(C(CNC(=O)c2cccc(S(=O)(=O)Nc3ccccc3Cl)c2)N2CCOCC2)cc1 (configuration not stated),"inconclusive: 8.91 µM [inhibitor, partial curve, poor fit]"
17,Cc1ccc(-c2ccc(CN3C(C)C(=O)N(Cc4cn(CC5CCCCC5)nn4)CCS3(=O)=O)cc2)cc1 (configuration not stated),"inconclusive: 39.8 µM [inhibitor, single point]"

# Source: PubChem BioAssay AID1745845 (National Center for Advancing Translational Sciences (NCATS), 2022)
